From patent US20250214977A1, “STAT6 INHIBITORS AND USES THEREOF” (Kymera Therapeutics, Inc., priority 2024, published 2025) come the findings set out here.

This experiment has as its target T1, biotinylated truncated STAT6 (123-632)-avi (Homo sapiens, UniProt P42226).
T1 sequence (P42226 123-632 limits assumed): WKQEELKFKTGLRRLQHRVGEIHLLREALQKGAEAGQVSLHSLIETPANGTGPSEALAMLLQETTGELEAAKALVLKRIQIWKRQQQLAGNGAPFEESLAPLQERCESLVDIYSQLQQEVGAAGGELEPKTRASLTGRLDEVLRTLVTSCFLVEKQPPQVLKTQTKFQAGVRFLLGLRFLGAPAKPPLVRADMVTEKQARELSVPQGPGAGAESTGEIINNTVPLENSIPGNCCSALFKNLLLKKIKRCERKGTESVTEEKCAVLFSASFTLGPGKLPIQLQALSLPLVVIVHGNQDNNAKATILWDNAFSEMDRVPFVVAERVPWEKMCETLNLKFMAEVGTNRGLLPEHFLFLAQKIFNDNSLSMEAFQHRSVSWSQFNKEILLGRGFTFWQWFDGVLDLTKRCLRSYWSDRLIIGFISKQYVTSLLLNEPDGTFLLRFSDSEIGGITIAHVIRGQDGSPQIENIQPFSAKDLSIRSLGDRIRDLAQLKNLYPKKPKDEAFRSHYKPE
The experiment is described as follows: Homogenous Time-Resolved Fluorescence (HTRF) binding assay. The conditions noted are these: 0.15 nM biotinylated truncated STAT6 (123-632)-avi, 20 nM fluorescein-labeled probe, 30 minutes at room temperature.

The structures appear in SMILES notation. pIC50: −log10 of the molar value.

On to `CN(C)C(=O)c1cc2ccc(C3=CCCN(C(=O)C4(O)CCCC4)C3)cc2[nH]1` [Example I-32], for which the negative logarithm of the IC50 (pIC50) is 4.00 to 5.00.
With `CN(C)C(=O)c1cc2ccc(C3=CCCN(C(=O)c4n[nH]cc4I)C3)cc2[nH]1` [Example I-33] the figure was 4.00 to 5.00.
`CN(C)C(=O)c1cc2ccc(C3=CCCN(C(=O)c4c[nH]nc4I)C3)cc2[nH]1` [Example I-34] gave a pIC50 of 4.00 to 5.00.
Then `Cc1nocc1C(=O)N1CCC=C(c2ccc3cc(C(=O)N(C)C)[nH]c3c2)C1` [Example I-35], with 5.00 to 6.00; and `CN(C)C(=O)c1cc2ccc(C3=CCCN(C(=O)Cn4cncn4)C3)cc2[nH]1` [Example I-36], with 4.00 to 5.00; and `CN(C)C(=O)c1cc2ccc(C3=CCCN(C(=O)Cn4ccnn4)C3)cc2[nH]1` [Example I-37], with 5.00 to 6.00.
With `CN(C)C(=O)c1cc2ccc(C3=CCCN(C(=O)Cc4c[nH]nn4)C3)cc2[nH]1` [Example I-38] the figure was 4.00 to 5.00; with `CN(C)C(=O)c1cc2ccc(C3=CCCN(C(=O)C4CCC4C(=O)O)C3)cc2[nH]1` (stereo not shown) [Example I-39], 4.00 to 5.00; with `CN(C)C(=O)c1cc2ccc(C3=CCCN(C(=O)C4CCCS4(=O)=O)C3)cc2[nH]1` (stereo not shown) [Example I-40], 4.00 to 5.00.
Then `Cc1nc(CC(=O)N2CCC=C(c3ccc4cc(C(=O)N(C)C)[nH]c4c3)C2)no1` [Example I-41], with 4.00 to 5.00.
The molecule `CN(C)C(=O)c1cc2ccc(C3=CCCN(C(=O)CN4CCOC4=O)C3)cc2[nH]1` [Example I-42] showed a pIC50 of 4.00 to 5.00.
With `CN(C)C(=O)c1cc2ccc(C3=CCCN(C(=O)c4cn(C5CC5)nn4)C3)cc2[nH]1` [Example I-45], the pIC50 was 4.00 to 5.00.
With `CN(C)C(=O)c1cc2ccc(C3=CCCN(C(=O)CC(C)(O)C(F)(F)F)C3)cc2[nH]1` (stereo not shown) [Example I-46] the figure was 4.00 to 5.00; with `CN(C)C(=O)c1cc2ccc(C3=CCCN(C(=O)c4ccc(O)c(F)c4)C3)cc2[nH]1` [Example I-48], 4.00 to 5.00; with `CC(=O)c1cc(C(=O)N2CCC=C(c3ccc4cc(C(=O)N(C)C)[nH]c4c3)C2)n[nH]1` [Example I-49], 4.00 to 5.00.
Then `CO[C@@H](C(=O)N1CCC=C(c2ccc3cc(C(=O)N(C)C)[nH]c3c2)C1)c1ccccc1` [Example I-50], with 5.00 to 6.00; and `CN(C)C(=O)c1cc2ccc(C3=CCCN(C(=O)C(O)Cc4ccccc4)C3)cc2[nH]1` (stereo not shown) [Example I-51], with 4.00 to 5.00; and `CC(C(=O)N1CCC=C(c2ccc3cc(C(=O)N(C)C)[nH]c3c2)C1)n1ccccc1=O` (stereo not shown) [Example I-53], with 6.00 to 7.00.
Then `CC(Oc1ccccn1)C(=O)N1CCC=C(c2ccc3cc(C(=O)N(C)C)[nH]c3c2)C1` (stereo not shown) [Example I-54], with 4.00 to 5.00; and `CN(C)C(=O)c1cc2ccc(C3=CCCN(C(=O)C45CC(C(F)(F)F)(C4)C5)C3)cc2[nH]1` [Example I-55], with 5.00 to 6.00; and `CN(C)C(=O)c1cc2ccc(C3=CCCN(C(=O)[C@@H]4C[C@H]4c4ccc(Br)cc4)C3)cc2[nH]1` [Example I-56], with 4.00 to 5.00.
In turn, `CN(C)C(=O)c1cc2ccc(C3=CCCN(C(=O)c4[nH]nc5c4CS(=O)(=O)C5)C3)cc2[nH]1` [Example I-57] had a pIC50 of 4.00 to 5.00.
`CN(C)C(=O)c1cc2ccc(C3=CCCN(C(=O)c4ccc5c(n4)OCCO5)C3)cc2[nH]1` [Example I-58] had a pIC50 of 4.00 to 5.00.
`CN(C)C(=O)c1cc2ccc(C3=CCCN(C(=O)[C@H]4Cc5ccccc5CN4)C3)cc2[nH]1` [Example I-59] had a pIC50 of 4.00 to 5.00.
Then `CN(C)C(=O)c1cc2ccc(C3=CCCN(C(=O)C4NCCc5ccccc54)C3)cc2[nH]1` (stereo not shown) [Example I-60], with 4.00 to 5.00.
On to `CN(C)C(=O)c1cc2ccc(C3=CCCN(C(=O)c4c(F)cccc4C(=O)O)C3)cc2[nH]1` [Example I-61], for which the negative-log IC50 (pIC50) was 4.00 to 5.00.
The molecule `CN(C)C(=O)c1cc2ccc(C3=CCCN(C(=O)c4cnn(C)c4C(F)(F)F)C3)cc2[nH]1` [Example I-62] had a pIC50 of 4.00 to 5.00.
With `CN(C)C(=O)c1cc2ccc(C3=CCCN(C(=O)CCc4ccccc4C#N)C3)cc2[nH]1` [Example I-64] the figure was 4.00 to 5.00.
For `CN(C)C(=O)c1cc2ccc(C3=CCCN(C(=O)CCS(=O)(=O)c4ccccc4)C3)cc2[nH]1` [Example I-66], the pIC50 was 4.00 to 5.00.
In turn, `CN(C)C(=O)c1cc2ccc(C3=CCCN(C(=O)COc4ccc(C(=O)O)cc4)C3)cc2[nH]1` [Example I-67] had a pIC50 of 4.00 to 5.00.
As for `COC(=O)c1ccc(CCC(=O)N2CCC=C(c3ccc4cc(C(=O)N(C)C)[nH]c4c3)C2)[nH]1` [Example I-68], the negative-log IC50 (pIC50) is 4.00 to 5.00.
Then `CN(C)C(=O)c1cc2ccc(C3=CCCN(C(=O)c4cccnc4CS(C)(=O)=O)C3)cc2[nH]1` [Example I-69], with 4.00 to 5.00; and `CNS(=O)(=O)c1cccc(C(=O)N2CCC=C(c3ccc4cc(C(=O)N(C)C)[nH]c4c3)C2)c1` [Example I-70], with 4.00 to 5.00.
With `CN(C)C(=O)c1cc2ccc(C3=CCCN(C(=O)C4ON=C(c5ccccc5)O4)C3)cc2[nH]1` (stereo not shown) [Example I-71] the figure was 4.00 to 5.00; with `CC(=O)OCC(C(=O)N1CCC=C(c2ccc3cc(C(=O)N(C)C)[nH]c3c2)C1)c1ccccc1` (stereo not shown) [Example I-73], 4.00 to 5.00; with `Cc1cc(Cl)c(S(C)(=O)=O)cc1C(=O)N1CCC=C(c2ccc3cc(C(=O)N(C)C)[nH]c3c2)C1` [Example I-74], 4.00 to 5.00.
`CN(C)C(=O)c1cc2ccc(C3=CCCN(C(=O)CN(C)S(=O)(=O)c4ccccc4)C3)cc2[nH]1` [Example I-75] gave a pIC50 of 4.00 to 5.00.
For the molecule `CN(C)C(=O)c1cc2ccc(C3=CCCN(C(=O)[C@@H]4C[C@H](c5ccccc5)CN4)C3)cc2[nH]1` [Example I-76], the pIC50 was 4.00 to 5.00.
In turn, `CC(=O)NC(C(=O)N1CCC=C(c2ccc3cc(C(=O)N(C)C)[nH]c3c2)C1)c1cccc(Cl)c1` (stereo not shown) [Example I-77] had a pIC50 of 4.00 to 5.00.
`CN(C)C(=O)c1cc2ccc(C3=CCCN(C(=O)C4(c5ccc(Cl)cc5)CC(O)C4)C3)cc2[nH]1` (stereo not shown) [Example I-78] showed a negative logarithm of the IC50 (pIC50) of 4.00 to 5.00.
As for `CN(C)C(=O)c1cc2ccc(C3=CCCN(C(=O)CN4C(=O)COc5ccccc54)C3)cc2[nH]1` [Example I-79], the negative logarithm of the IC50 (pIC50) is 4.00 to 5.00.
As to `CN(C)C(=O)c1cc2ccc(C3=CCCN(C(=O)CCn4ncc5cc(Cl)ncc54)C3)cc2[nH]1` [Example I-80], the pIC50 was 4.00 to 5.00.
In turn, `CCOC(=O)N(CC(=O)N1CCC=C(c2ccc3cc(C(=O)N(C)C)[nH]c3c2)C1)Cc1ccco1` [Example I-81] gave a pIC50 of 4.00 to 5.00.
With `CC(=O)NC(Cc1cccc(F)c1)C(=O)N1CCC=C(c2ccc3cc(C(=O)N(C)C)[nH]c3c2)C1` (stereo not shown) [Example I-82] the figure was 4.00 to 5.00.
Then `CN(C)C(=O)c1cc2ccc(C3=CCCN(C(=O)C4(c5ccc(C(F)(F)F)cc5)CC4)C3)cc2[nH]1` [Example I-84], with 5.00 to 6.00; and `CN(C)C(=O)c1cc2ccc(C3=CCCN(C(=O)CCCn4c(=O)[nH]c5ccccc54)C3)cc2[nH]1` [Example I-85], with 4.00 to 5.00.
Then `Cc1cccc(-c2ncccc2C(=O)N2CCC=C(c3ccc4cc(C(=O)N(C)C)[nH]c4c3)C2)c1` [Example I-86], with 4.00 to 5.00; and `CN(C)C(=O)c1cc2ccc(C3=CCCN(C(=O)C4CC(=O)N(Cc5ccccc5)C4)C3)cc2[nH]1` (stereo not shown) [Example I-88], with 4.00 to 5.00.
In the case of `Cc1nc(-c2ccccc2F)c(C(=O)N2CCC=C(c3ccc4cc(C(=O)N(C)C)[nH]c4c3)C2)o1` [Example I-89], the negative-log IC50 (pIC50) is 4.00 to 5.00.
With `CN(C)C(=O)c1cc2ccc(C3=CCCN(C(=O)CCCn4ncc5nc(Cl)ccc54)C3)cc2[nH]1` [Example I-90] the figure was 4.00 to 5.00.
`CN(C)C(=O)c1cc2ccc(C3=CCCN(C(=O)c4ccccc4CSc4ccccc4)C3)cc2[nH]1` [Example I-92] showed a negative-log IC50 (pIC50) of 4.00 to 5.00.
Then `CN(C)C(=O)c1cc2ccc(C3=CCCN(C(=O)C4COCC(=O)N4Cc4ccccc4)C3)cc2[nH]1` (stereo not shown) [Example I-93], with 4.00 to 5.00; and `CN(C)C(=O)c1cc2ccc(C3=CCCN(C(=O)c4cccnc4-c4cc(F)cc(F)c4)C3)cc2[nH]1` [Example I-94], with 4.00 to 5.00; and `CN(C)C(=O)c1cc2ccc(C3=CCCN(C(=O)c4cccnc4SCc4ccccc4)C3)cc2[nH]1` [Example I-95], with 4.00 to 5.00.
With `CCC[C@@H](C(=O)N1CCC=C(c2ccc3cc(C(=O)N(C)C)[nH]c3c2)C1)N1Cc2ccccc2C1=O` [Example I-96] the figure was 4.00 to 5.00.
With `Cc1cccc(C)c1N1CC(C(=O)N2CCC=C(c3ccc4cc(C(=O)N(C)C)[nH]c4c3)C2)CC1=O` (stereo not shown) [Example I-97] the figure was 4.00 to 5.00; with `CN(C)C(=O)c1cc2ccc(C3=CCCN(C(=O)C4(O)CCN(Cc5ccccc5)CC4)C3)cc2[nH]1` [Example I-98], 4.00 to 5.00; with `CN(C)C(=O)c1cc2ccc(C3=CCCN(C(=O)[C@@H]4CCCN4C(=O)c4ccc(F)cc4)C3)cc2[nH]1` [Example I-99], 4.00 to 5.00.
With `CN(C)C(=O)c1cc2ccc(C3=CCCN(C(=O)C4CN(Cc5ccccc5)CCO4)C3)cc2[nH]1` (stereo not shown) [Example I-100], the negative logarithm of the IC50 (pIC50) was 4.00 to 5.00.
Then `CN(C)C(=O)c1cc2ccc(C3=CCCN(C(=O)CNC(=O)c4cccc(C(F)(F)F)c4)C3)cc2[nH]1` [Example I-101], with 4.00 to 5.00; and `CN(C)C(=O)c1cc2ccc(C3=CCCN(C(=O)c4cc5occc5n4-c4ccccc4)C3)cc2[nH]1` [Example I-102], with 4.00 to 5.00.
